± gives the standard deviation of the averaged measurements. The list shows a part of the results.

The assay deals with PfAP2-G AP2 domain (GST-tagged). Put plainly: gcPBM binding intensity (ln(normalized median fluorescence intensity)); higher = stronger DNA binding. In a few lines:
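GST-fused DNA-binding domains of P. falciparum, expressed in E. coli, were applied at about 25 μg on average for 1 h to an Agilent 4 × 180k array of primer-extended double-stranded 36-bp intergenic genomic probes and negative controls. Binding intensity is the highest Masliner-normalised natural-log median intensity across replicate spots of either probe orientation, measured with Alexa488 anti-GST antibody and a 488 nm scan.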
As for “AAAATTATAATATATACACACATATATATATTAAAT [CACACA_site473]”, the “gcPBM binding intensity (ln)” value amounted to 9.91 ± 0.18.
Take “TATTGTTTTTTTGATTTTTTTTTTTTTTTTAATGAA [CACACA_negctrl_site824]”: the “gcPBM binding intensity (ln)” value stood at 9.465 ± 0.064.
On to “ACCAAATCATATATAGCACACAAATTCTTTATTATT [CACACA_site8911]”, for which the “gcPBM binding intensity (ln)” value was determined as 9.94 ± 0.13.
Take “AATATTTTCTGTAATACTTCTTTTCAATTTATTTCG [CACACA_negctrl_site1390]”: the “gcPBM binding intensity (ln)” value came out at 10.3 ± 0.11.
On to “AATATCAATGATGTTACATGCAAGAGAATCCACAAA [TGCATGCA_site678]”, for which the “gcPBM binding intensity (ln)” value worked out at 10.12 ± 0.021.
The value for “TATATTAAACATATATGTACATATTTTTTCTGAACA [XGTACX_site5390]” was 11.3 ± 0.78; that for “ACGTAAAATTATTATTGTACATGTAAATAATTTGGA [XGTACX_site8154]” was 11.1 ± 0.32; that for “ATTTACATTCACTTATGTACTTATATAATTTTATTT [XGTACX_site8150]” was 11.3 ± 0.8.
Next, “TAACTCCACAAATAATGTACATATATCACTATATTT [XGTACX_site4911]”: 10.8 ± 0.46; “AATGTATAATTATAATGTACAAATAATATATAATAT [XGTACX_site5407]”: 10.9 ± 0.4.
For “TATATAATATATATTTTATATTTGTAATAATTTTTT [GTGCAC_negctrl_site497]”, the “gcPBM binding intensity (ln)” value came to 9.52 ± 0.057.
As to “TACATATGAAAATACACACATACATACATATATATA [CACACA_site1673]”, the “gcPBM binding intensity (ln)” value is 9.94 ± 0.11.
On to “TACCCACGTATATATATACACACTAATATACACCCA [CACACA_site9381]”, for which the “gcPBM binding intensity (ln)” value is 10.2 ± 0.2.
Next, “TATACGAAATTGTGCACACATATATTTATGTATGTA [CACACA_site1509]”: 10.4 ± 0.29; “AATACATAATAACATGTACACACATTCTTCTATAAA [CACACA_site9344]”: 11.3 ± 0.86; “AAAAAAAACGAACACACACACATACAAAATCTATAT [CACACA_site6795]”: 10.03 ± 0.014.
The value for “TTAAAAGAATATAATGCACACATTATTTTATTTTAT [CACACA_site3772]” was 9.73 ± 0.13; that for “GTATGAGTCGTAGAGTGTACTCTGGAGAAAACTACA [XGTACX_site4942]” was 11.4 ± 0.78.
Consider “TTTTTTCTTAGTTATACATGCAAAATAAATAAATAA [TGCATGCA_site410]”, for which the “gcPBM binding intensity (ln)” value worked out at 9.96 ± 0.28.
For “TATTTTTTCTTAAACACACACATATATATATAGAAT [CACACA_site2836]”, the “gcPBM binding intensity (ln)” value is 10.1 ± 0.19.
Take “TTAAATGAAAAAATATGTACGTATAATAAGAAATAT [XGTACX_site6619]”: the “gcPBM binding intensity (ln)” value was determined as 11.6 ± 0.87.
Consider “TGCATACATAAATGTATATATTAATATATATCATAT [GTGCAC_negctrl_site252]”, for which the “gcPBM binding intensity (ln)” value worked out at 9.62 ± 0.12.
Regarding “ATTTATATATAATTTTGTACGAAAAAAATAAGGTAT [XGTACX_site3578]”, the “gcPBM binding intensity (ln)” value turned out to be 11 ± 0.67.
On to “TATATATTTATTAAATGTACATAACAAAAATGGTAT [XGTACX_site3577]”, for which the “gcPBM binding intensity (ln)” value was 11.1 ± 0.52.
Turning to “TTTTTTTTTTTGTTCACACATATACTTTTATTTTGG [CACACA_site4250]”, the “gcPBM binding intensity (ln)” value was determined as 10.2 ± 0.23.
For the sequence “AATGCTATCATTAATGCACACATTTAAACTTAATAT [CACACA_site5878]”, the “gcPBM binding intensity (ln)” value was found to be 10.03 ± 0.035.
Take “TATAACGCTTGCAGCTGTACAAAAATAATCAAACTG [XGTACX_site2464]”: the “gcPBM binding intensity (ln)” value was 10.7 ± 0.34.
Regarding “AAAAGATTTATACATACACACATATTATAGTCACAT [CACACA_site7701]”, the “gcPBM binding intensity (ln)” value is 10.02 ± 0.049.
For the sequence “TGTATACGCATATGTACACACATATATATGTATATG [CACACA_site3087]”, the “gcPBM binding intensity (ln)” value was 11.4 ± 0.9.
With “GTGTAATTATCAGCATAAATATGGTACATACATAAA [CACACA_negctrl_site323]”, the “gcPBM binding intensity (ln)” value is 10.9 ± 0.57.
As to “TTTGTTTTAAATATTATACACACGTAAAAGTAGAAT [CACACA_site214]”, the “gcPBM binding intensity (ln)” value is 10.5 ± 0.45.
As for “GGAAACCTTTTTTTTACACACAATATATTAATACTT [CACACA_site1403]”, the “gcPBM binding intensity (ln)” value was determined as 10.04 ± 0.049.
“TACACCCTATTTTTATGTACTTATTTGATTTACACA [XGTACX_site8172]”: the “gcPBM binding intensity (ln)” value is 11.4 ± 0.84.
As to “ATATAAATACGGTGTGCACACACATAATATATATAT [CACACA_site2271]”, the “gcPBM binding intensity (ln)” value is 10.7 ± 0.38.
Regarding “CAAGAAAATGGACACACACACATATATATATATATA [CACACA_site6010]”, the “gcPBM binding intensity (ln)” value stood at 10.9 ± 0.6.
Next, “CAAATTTAAAAAAAATCACACACAGAAAAAAAAAAA [CACACA_site8728]”: 10.01 ± 0.028; “AAACGTATGTTATTTACACACCCTTCCACTTTTATA [CACACA_site3337]”: 9.94 ± 0.057; “TATAAAATAAGACATGCATGTTATACATATATATTT [TGCATGCA_site156]”: 9.8 ± 0.16.
Take “CATTATTATTTTATAACACACACATATATATTATAT [CACACA_site8405]”: the “gcPBM binding intensity (ln)” value was 10.1 ± 0.16.
Next, “ATGTTTTTTATTCTTCGTACGTATGAACGATAGTGT [XGTACX_site4225]”: 11.1 ± 0.74.
Regarding “TGAAATTTCAATACATGTACATATAAAAAAAAAAAA [XGTACX_site4424]”, the “gcPBM binding intensity (ln)” value was 11.3 ± 0.93.
Regarding “TGTATATGTGAAGCAAGGGATGCGGCAGACATAACA [CACACA_negctrl_site1339]”, the “gcPBM binding intensity (ln)” value came to 10.15 ± 0.099.
Turning to “ATGTGCAAATATTAAAGTACTAAATTTTATTATTTT [XGTACX_site7306]”, the “gcPBM binding intensity (ln)” value came out at 10.8 ± 0.47.
For the sequence “ATAAATACATATAAAAGTACACACACACACATATAT [XGTACX_site1744]”, the “gcPBM binding intensity (ln)” value is 11.5 ± 0.93.
On to “AAAAAAAAAAAAAAATGTACATATATATATTATAAA [XGTACX_site518]”, for which the “gcPBM binding intensity (ln)” value amounted to 11.1 ± 0.57.
As for “TTTTTTTTTTCTACAAGTACATATTTTCATTTAACA [XGTACX_site6621]”, the “gcPBM binding intensity (ln)” value was 11.1 ± 0.64.
In the case of “AAATTAAAAAAAAATAAATAAAAAAAAAAAAAAAAT [CACACA_negctrl_site1611]”, the “gcPBM binding intensity (ln)” value was determined as 9.67 ± 0.071.
The value for “TAAGCATAAATGTATACATGCGATGCATACACATAT [TGCATGCA_site749]” was 9.795 ± 0.021.
In the case of “ATGAAATTATATTGGGGTACGTCAAAAAAGGAGATA [XGTACX_site7451]”, the “gcPBM binding intensity (ln)” value was determined as 11.4 ± 0.83.
On to “CAGATAGACTTATATGCATGCATTCACCTGCCAACA [TGCATGCA_site158]”, for which the “gcPBM binding intensity (ln)” value is 10 ± 0.042.
The value for “ATATTACATAATATATGTACACACGCAAATACTTAT [XGTACX_site671]” was 11.4 ± 0.79; that for “GGGTATATATTATTATGTACACATGTATAAAATAAG [XGTACX_site2633]” was 11.5 ± 0.78.
As to “AAAAAAAAAAAAATTACACACATACATATAATAATA [CACACA_site8680]”, the “gcPBM binding intensity (ln)” value worked out at 9.86 ± 0.028.
Next, “ATATTAAGAATAAACAGTACATATAATAAATACCAT [XGTACX_site5933]”: 10.9 ± 0.52; “ATTAAAAAAAAAGAGCGTACAAATAATTACTTCTTT [XGTACX_site8262]”: 11.5 ± 0.73.
Turning to “TATAAATTTATAAATAGTACATATATTTATATATAT [XGTACX_site6433]”, the “gcPBM binding intensity (ln)” value was 11.1 ± 0.76.

The values are drawn from the supplement of paper PMC11417369.
